Binding data for one molecule are collected here from publication PMC3681933.

Amino acid sequences for entries named in this document (tags omitted). A change or cut given only in a name is not applied to a line headed by its entry.
UniProt P06780: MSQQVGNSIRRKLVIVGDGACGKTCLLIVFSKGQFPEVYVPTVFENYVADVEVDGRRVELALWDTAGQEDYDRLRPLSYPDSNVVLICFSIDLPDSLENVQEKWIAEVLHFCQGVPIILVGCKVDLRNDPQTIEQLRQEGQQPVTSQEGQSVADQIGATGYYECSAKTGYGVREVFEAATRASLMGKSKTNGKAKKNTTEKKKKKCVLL
UniProt P19073: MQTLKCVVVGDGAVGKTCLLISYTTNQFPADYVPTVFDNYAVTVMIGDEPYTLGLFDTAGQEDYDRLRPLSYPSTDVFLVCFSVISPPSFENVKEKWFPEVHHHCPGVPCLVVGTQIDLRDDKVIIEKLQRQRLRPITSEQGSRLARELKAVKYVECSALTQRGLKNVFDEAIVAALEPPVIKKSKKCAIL

Results are given in words; binding and its absence hold for the method and conditions named. Binding seen in cells or lysates may run through a third protein. Some entries that bind do so weakly or less than the wild type. Sequences can lack the tags named with a protein.

Holding throughout (experiment): pull-down; GST or GST fusions induced with 2% galactose for 4 h in yeast co-expressing 3HA-Msb1 (strains YEF473A wild type or YEF1395 msb1Δ, endogenous BOI1 and BOI2 present); glutathione-Sepharose beads from Triton X-100-solubilized cell lysates; anti-HA blot
One assay has as its target GST-Rho1 (S. cerevisiae) (UniProt P06780).
Assay [1] has as its target GST-Cdc42 (Q61L) (S. cerevisiae) (UniProt P19073).
For another assay, the target named is T1, GST-Boi2 (S. cerevisiae) (UniProt P39969).
T1 sequence: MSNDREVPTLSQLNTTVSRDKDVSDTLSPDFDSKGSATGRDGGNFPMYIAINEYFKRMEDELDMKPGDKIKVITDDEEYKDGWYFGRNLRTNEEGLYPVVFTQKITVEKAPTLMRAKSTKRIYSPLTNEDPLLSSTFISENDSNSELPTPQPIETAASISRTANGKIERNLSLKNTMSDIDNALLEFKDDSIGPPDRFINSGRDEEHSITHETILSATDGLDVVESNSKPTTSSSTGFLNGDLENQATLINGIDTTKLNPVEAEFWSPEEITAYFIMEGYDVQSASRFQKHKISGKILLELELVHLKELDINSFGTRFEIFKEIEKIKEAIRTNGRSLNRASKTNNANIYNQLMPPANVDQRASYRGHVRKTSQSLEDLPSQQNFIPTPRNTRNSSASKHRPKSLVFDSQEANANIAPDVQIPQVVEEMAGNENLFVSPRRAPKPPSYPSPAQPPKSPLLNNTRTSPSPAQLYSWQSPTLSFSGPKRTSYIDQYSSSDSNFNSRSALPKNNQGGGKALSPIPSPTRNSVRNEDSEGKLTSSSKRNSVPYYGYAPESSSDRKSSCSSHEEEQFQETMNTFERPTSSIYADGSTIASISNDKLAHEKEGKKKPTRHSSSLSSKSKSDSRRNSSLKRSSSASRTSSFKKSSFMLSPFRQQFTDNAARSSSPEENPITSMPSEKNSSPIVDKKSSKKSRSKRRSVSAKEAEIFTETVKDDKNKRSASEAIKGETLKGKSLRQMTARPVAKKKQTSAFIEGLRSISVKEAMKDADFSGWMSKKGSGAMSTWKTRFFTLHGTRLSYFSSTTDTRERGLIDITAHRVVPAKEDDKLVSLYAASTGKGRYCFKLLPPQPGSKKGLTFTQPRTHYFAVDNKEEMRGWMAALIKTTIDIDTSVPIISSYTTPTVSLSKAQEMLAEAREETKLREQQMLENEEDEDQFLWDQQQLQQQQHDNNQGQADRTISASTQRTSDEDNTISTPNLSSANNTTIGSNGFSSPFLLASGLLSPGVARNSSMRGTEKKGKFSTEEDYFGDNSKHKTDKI

The target in assay [2] is T2, GST-Cdc24 (S. cerevisiae) (UniProt P11433).
T2 sequence: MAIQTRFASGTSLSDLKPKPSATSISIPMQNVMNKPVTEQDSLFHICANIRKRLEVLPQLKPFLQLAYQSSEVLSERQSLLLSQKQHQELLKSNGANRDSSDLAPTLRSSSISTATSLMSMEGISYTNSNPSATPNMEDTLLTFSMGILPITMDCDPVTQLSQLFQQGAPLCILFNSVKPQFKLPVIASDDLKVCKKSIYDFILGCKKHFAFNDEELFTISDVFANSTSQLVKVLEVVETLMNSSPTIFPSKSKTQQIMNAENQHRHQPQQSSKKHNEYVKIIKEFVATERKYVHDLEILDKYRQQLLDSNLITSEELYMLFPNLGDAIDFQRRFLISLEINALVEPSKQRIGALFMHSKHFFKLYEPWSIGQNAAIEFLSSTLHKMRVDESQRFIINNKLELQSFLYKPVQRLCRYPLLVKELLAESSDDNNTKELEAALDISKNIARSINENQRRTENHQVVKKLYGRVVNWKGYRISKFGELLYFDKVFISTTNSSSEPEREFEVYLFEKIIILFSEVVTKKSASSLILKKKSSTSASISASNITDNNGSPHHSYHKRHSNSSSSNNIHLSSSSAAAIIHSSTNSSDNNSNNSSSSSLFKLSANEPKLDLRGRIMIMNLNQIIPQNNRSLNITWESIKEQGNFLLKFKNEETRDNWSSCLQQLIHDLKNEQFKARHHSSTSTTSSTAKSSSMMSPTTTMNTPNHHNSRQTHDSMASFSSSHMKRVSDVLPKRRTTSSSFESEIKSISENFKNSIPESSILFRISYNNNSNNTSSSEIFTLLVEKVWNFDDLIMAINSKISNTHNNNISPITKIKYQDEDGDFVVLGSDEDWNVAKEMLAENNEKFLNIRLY

For assay [3], the target named is GST-Cdc42 (WT) (S. cerevisiae) (UniProt P19073).

B1: Msb1 tagged with three copies of HA at its N-terminus (protein, UniProt P21339 1-1137)
chain: MNDMAKPLPTPPTAEIRKSRSNSPKKAQKTNLSPNKNQNNEKNVPRSNGRTKNEHNSMDDEEFEFFHQFSREKVKGVIHVITAELKEKGPDVEFLMIPFRPEQTNDKLLTLLNQLFPLGNGQPVNEKKQLRIVSKADVWTLFQCLKYIWCRLPNSEIIGWKSYLEFKFREEDKKFPRKSFLEIMPQCLASPNHASIVYDFFDLIISISSNSRVNKMSARKISKMCAIWAFSKQIPNSDIQDYDFESAAMKSFAPNNSIQDGLDQWIPASDAMFHLLLAFLRSFVPQDLESAKLPRTLKSLLFNNQYPPRKSTAYTSETILTIPLVTLKTDVFSRKPWQLLERCNDLLDFSDHDAFEAREDYALLKSLFRKKNTVEGISRKMSQESRRLMKAMSTKHSTFQPGWAPRECIENISHLKECIEVKRLDIDDYFIWTWLSSLSFEQTSEKKKIFGRSIILEFEFDGFKKWVVFQECDITLDYNKKGQLKKKTSAQSPTTEKELPPDDFELEDPPLSKSPTLSQTYKKFQAEVPQQSTVRRDSAPDNQGIYHTVISKNALTKNKHNVNLHSFEHKISKWNPLNNLRKKSGSNSSSSSFEEKSKDAPIREEYHTNKNHKSKKEERVLSQFSTLNPDEYQLPVIETGSSNFKIEIPELMYEHDDDDSDKLKNSQKRATDSAIEELNGMVEEMMINEPDDVKISITEAETFESLTKFDQYKPSNITDDDLQSSHSSAVHSLKLSTNTNDSCADSSKYTADRKLAEPRKISEESKVNDDSSSYYSPNINNLPASRMPSQPTYSNSDSKKAFTNESRLNVLQGAVSPSQQVTPKPYKNAPGDCVSPVQQKYYQNDRRNEMSPASAPVPPSAYSPARSPQFSTNSAGFKQNTINVPVGYNDPAHVLANQPHMTYRDQHNYPSHQQKQRPFQNNIVPPELKSRNQRADASPIPQHMVPVKQGVPNLPSNVPLYQQMERMNPNHQHPVNTYKVTQPPYHNNTTNAYGNSRAGNAHMLDGKWSNNPPQMVPKGVRPNQYPQQHVNRYSPQAQPVVPAEYYNGPPPMRAPPMMSHMVPAQEPIRYTAGANRRSFPQGMQQNAYSVPAQPMGAVNSEFYLPEAPQGNKLHGNINKRQERKKLYDNIRSGNFGI
As for B1, the binding result with GST-Rho1 (S. cerevisiae) is listed as “binds”; in assay [1], “binds”; with GST-Boi2 (S. cerevisiae) it was “binds”; in assay [2], “no binding”; in assay [3] it was “binds”.
